According to the RNAGym collection of RNA variant scans (doi:10.7554/elife.90254):
Read counts are not given, so values of variants with three or more changes are uncertain.

B1: LINE1-mini (parent)
chain: GGCAGAGCUCAACACAGCGUGGCAAAGUGGCUGUGGCUAGACUGCC

Variants of: B1
Assay: self-cleavage, relative activity (ratio to wild type); higher = more cleavage; in vitro, sequencing; the parent is a self-cleaving ribozyme

Row | Variant | self-cleavage
1 | A6U C15G G29C A39U G40C A41C | 0.01
2 | G7A C15U C23U | 0.23
3 | A6G G40U C42U | 0.02
4 | A6G U9G C37G C46G | 0.05
5 | A6G U9C C31G | 0
6 | G7A A11U A14U U34G U38A A39G | 0
7 | A6G G21U G29C C42U | 0.03
8 | A6U U38C A39C | 0.41
9 | A6U G29U U34A | 0.33
10 | A6U G17C G21A A24U | 0.45
11 | G7A C15A U28C | 0.13
12 | G7A G19C C23G A39C | 0.04
13 | A6G U20G A39C C46A | 0
14 | G7A C18A U43C | 0.13
15 | G7A C15G G21U A25G G40C | 0.11
16 | G7A C15G G27C | 0.03
17 | G7A C13G C18A C46G | 0.17
18 | A6G U28C C42U U43C | 0.03
19 | A6U U9A C31G | 0.03
20 | A6G G35A A39U A41U C46A | 0.06
21 | A6U G22C U28A C45U | 0.92
22 | A6U A11C G36C | 0.04
23 | G7A C13A A14U C18A | 0.01
24 | A6U C23U A25G C46G | 1.57

Row | Variant | self-cleavage
25 | A6U A14C U34A | 0.01
26 | A6G G22U A26C A41C C45U | 0.21
27 | G7A C13A G17C | 0.38
28 | G7A C23A A24G | 0.79
29 | A6G U9G C23A C37G G40U G44U | 0.05
30 | G7A C8G U9G | 0.04
31 | A6U A11U A26U G33C A41G | 0.04
32 | A6U C18G G22C | 0.07
33 | G7A G19A G21A | 1.01
34 | G7A C23G U38G C46G | 0.01
35 | G7A A25C G33U G40A | 0.04
36 | A6G U32A G35A A41G | 0.24
37 | A6U C23G U38G G40U | 0.03
38 | A6G G22A C23G C37G | 0.01
39 | A6U G7A G19A | 0.18
40 | A6U C8U G40A | 0.03
41 | G7A A25U A39C | 0.1
42 | A6U U9G A25U | 0.02
43 | A6G U34C C46A | 0.04
44 | A6U U9G C10U A41G | 0.01
45 | G7A A39G C42U | 0.14
46 | G7A A25G U32C G33A G35C | 0.03
47 | G7A C10G G19A | 0
48 | A6G U9C A16C G36A C46A | 0.01

Row | Variant | self-cleavage
49 | A6G U20G C37A A39C | 0.03
50 | A6G G36A A39C | 0.2
51 | A6U G30U G33A | 0.03
52 | A6U G7U C31U U34A | 0.02
53 | G7A C10A A16C | 0.01
54 | G7A A12C G33U | 0.01
55 | A6U G33U U43G | 0.25
56 | A6G G21U A24G C37G | 0.76
57 | A6U U32C A41C | 0.04
58 | A6U C10G A24G G33C G36U | 0.02
59 | G7A C18G A25C C37U | 0.04
60 | A6G U34G G44A | 0.02
61 | G7A G19U G40A C46U | 0.14
62 | A6U G30C U38G C46U | 0.02
63 | A6U A11C G40A | 0.02
64 | G7A C8U C18U G21U U34A | 0.05
65 | G7A C10A U34A | 0.01
66 | A6G U28A U38A | 0.03
67 | A6G U34G C42U | 0
68 | A6U A14G U32A G40U | 0.1
69 | A6U A14G G30U | 0.42
70 | G7A A11U G19A G33U | 0.03
71 | G7A C13A C18U A24G G35U G36A A41U | 0.07
72 | A6G G21U G27C | 0.1

Row | Variant | self-cleavage
73 | G7A A16C G21C U32C C42U | 0.03
74 | G7A C8A A11C | 0.04
75 | A6U C10A G29C U32A C45U | 0.03
76 | A6U U20A G22A G33A C37U | 0.03
77 | G7A C15G G44U | 0.01
78 | G7A C8A A14U C15U C23G U34A G36U | 0.08
79 | A6U G44C C45G | 0.24
80 | A6U C15A C18G U20A | 0.25
81 | G7A A26G U43C C45G | 0.1
82 | G7A C10A A39C | 0.02
83 | G7A A11U C18U U28C U34G C46U | 0.02
84 | A6U A16C C18A U20A G30U | 0.08
85 | G7A C31G C42G | 0.03
86 | G7A C8U C42A C46A | 0.06
87 | A6U C13G C46U | 0.13
88 | A6U C8U G29C C46G | 0.09
89 | A6U C10A G21A C46A | 0.49
90 | A6U A11C C15A A25G C31U U32G C37U A41U | 0
91 | A6U G7U C45U | 0.05
92 | G7A G19U C23U | 0.05
93 | G7A A11U A25C G40U | 0.01
94 | A6U A11U A16C C23G | 0.01
95 | A6U A11U A41U | 0.05
96 | G7A C8A C23G U32G C42G | 0.26

Row | Variant | self-cleavage
97 | G7A A16G C18G | 0.28
98 | A6G U9G C42A | 0.1
99 | G7A C10A C15G U28A | 0.01
100 | G7A C10G G22C | 0.02
101 | A6U G21C G36A G40C | 0.28
102 | G7A C23A G30A G33A U43A | 0.18
103 | A6U U9A A12G A14U C18U C42A U43C | 0.29
104 | A6U G7U C18A G29C U32A C46G | 0.03
105 | A6G G22C G27C G35U | 0.04
106 | G7A A12C G21C | 0.02
107 | G7A C18G U38A | 0.02
108 | A6U C8U A11C | 0.04
109 | A6U A16G U38C | 0.1
110 | A6U C13U U34A | 0.11
111 | G7A A16U A25G | 0.23
112 | A6U A12U A16G C23G | 0.14
113 | A6U C8U A12U G19A | 0.36
114 | A6U A16U C31A U38G | 0.37
115 | A6G U9G U32G A41U | 0.15
116 | A6U G7A U9C C18A | 0.04
117 | A6U C10G C13U A25G A26U U32A | 0.01
118 | A6U C8A G27A | 0.26
119 | A6G U9C G19A | 0.02
120 | G7A C23U G30U | 0.1

Row | Variant | self-cleavage
121 | G7A C8G U34G G44A | 0.07
122 | G7A C10A G22C C37A | 0.01
123 | A6U A12C G40C | 0.01
124 | G7A C10G C46U | 0
125 | A6U A26U C46A | 0.82
126 | A6U C42U C46A | 0.03
127 | A6G U20C A26C U38C | 0
128 | A6U U20G A26C | 0.46
129 | G7A A16U G21A G33A | 0.18
130 | G7A C23G U38A U43A | 0
131 | A6G U9A G22C U38C A41C | 0.01
132 | G7A C15G A41C C45G C46A | 0.05
133 | G7A A12U C23A A24C C46U | 0.02
134 | A6U G29C G35C C45U | 0.08
135 | A6U G19C G22C G33C G35A | 0.07
136 | A6U A25U G36A C37U U38A | 0.21
137 | A6U C13G A16U U20G A24G G40U C46U | 0.07
138 | A6U C8G C15G C18U | 0.01
139 | A6U G7C U9C | 0.04
140 | G7A C13G G22A G36A | 0.22
141 | G7A G21A G22A G29C G40A | 0.01
142 | A6G U9G C37U | 0.03
143 | G7A G17U G35A A39C | 0.1
144 | A6U G7U C8G C10U G22C U32G G40C | 0.02

Row | Variant | self-cleavage
145 | G7A C23A C31G | 0.15
146 | A6U U38A C45G | 0.19
147 | G7A A14U A16C G19C C23G C42G | 0.06
148 | A6U A39U G44C | 0.31
149 | G7A C15G U20G | 0.09
150 | G7A C10A G17A G22U G40C U43C | 0.02
151 | A6U A16G U20A | 0.44
152 | A6U A25G G29A A39C | 0.03
153 | A6G G29A G36A U43C G44C | 0.12
154 | A6U A11G A14C G30U | 0.03
155 | G7A C8A G21U A39U | 0.02
156 | A6G G27U U43C | 0.04
157 | A6U C8G C46A | 0.07
158 | A6U U20C G35U C37G | 0.01
159 | A6G U28C C37U | 0.03
160 | A6U U9A U20C | 0.03
161 | A6U G29U A39G | 0.19
162 | G7A C23A C45U | 0.13
163 | A6U A16C G27A C42G C46A | 0.1
164 | A6U C15A A25C A39G | 0.05
165 | A6U G7A G19U A25C G40C | 0.06
166 | A6U A12C G22C | 0.02
167 | A6U C8G G29A C45A | 0.03
